# The list shows a part of the results. At the low end of the ranking the order means little.
# Biological target: SIX1-Q177R homeodomain (UniProt Q15475)
# Assay: universal protein binding microarray
# Conditions: Universal all-10-mer PBM (8x60K, AMADID 030236), 300 nM GST-tagged protein, Alexa Fluor 488 anti-GST; buffer, salt, pH and temperature not stated; high values mean tight binding; most listed sequences are background and not binding sites; double strand, one strand shown
row,Sequence,binding signal [E-score]
1,AGTTGAGG,-0.191
2,AACGAGAG,-0.186
3,ACCAATGC,-0.081
4,CCAAGAGC,0.106
5,CTACCGTA,-0.0805
6,ATACCGTC,0.0905
7,CCGCTGCC,-0.0686
8,CCCATCAG,0.0999
9,AGAGAACG,-0.188
10,CCAGCTAG,-0.0135
11,CGAGGGTA,0.0841
12,TAGTTGGA,-0.0294
13,CGACAGCG,-0.183
14,CTGAAGGA,-0.178
15,AGGGACCC,-0.0162
16,CGAAAGTC,-0.209
17,CCTAGGCA,-0.0906
18,AACAGTGG,-0.0612
19,AATTGGCG,-0.0628
20,CAGACTTC,0.00528
21,ATTGCTGC,-0.152
22,CGTACATA,0.0438
23,AGTGTAGC,0.394
24,GACGCGAC,-0.0139
25,ACTCCGAG,0.142

row,Sequence,binding signal [E-score]
1,GTATAAAC,0.123
2,CTTTGGTC,-0.238
3,GGTAACAC,0.432
4,CCGCCACA,0.282
5,AATCTTCT,0.00395
6,GTCAGTGA,0.0324
7,GAGTAACC,0.0801
8,ATTGTATA,0.0276
9,TCAGCTCA,-0.0887
10,CGACAAGC,-0.0916
11,AGACGTGA,-0.28
12,GTTAGATA,-0.0411
13,CGTTCCAC,-0.0341
14,CCAATGTA,0.0709
15,CGGAATGC,-0.31
16,GAGAGCGC,-0.254
17,GCGACGCC,0.0511
18,AATCGCAT,-0.0474
19,ACTGTCAG,0.0113
20,GAACGCAA,-0.125
21,AACCTCCT,0.0252
22,AATGACGA,-0.0396
23,AAGCAACC,-0.245
24,GAGTGCTA,0.152
25,TCCTTTCA,-0.165

row,Sequence,binding signal [E-score]
1,CCCCCAAA,0.092
2,GAGACAGC,-0.178
3,ATGAAGCA,0.00639
4,CCCTTAAG,0.0842
5,ACAACCAT,-0.137
6,TCATGGAA,-0.225
7,TGTTTTAA,0.0553
8,ATGCCCTA,-0.225
9,AGCCCTTA,-0.214
10,GATGGTCC,-0.0954
11,AACAGAGT,0.102
12,TAATTCTA,0.136
13,CCCATAGG,0.132
14,ACAACGGA,0.0334
15,GCCACCCC,0.132
16,CCACATTC,-0.198
17,AGAAGATA,-0.164
18,GGGGGACC,-0.0801
19,GCCGTCGA,0.00855
20,CCTAATAC,0.0255
21,TTCTTAAA,-0.26
22,AGCCAACG,-0.0941
23,AGCGGTTC,-0.0712
24,ATCTGGCC,-0.148
25,ACCACCCT,0.183

row,Sequence,binding signal [E-score]
1,ACGGCGCC,-0.144
2,AATGAAAT,-0.289
3,GGGTTGAC,0.0762
4,GTCGGCAC,0.0296
5,ATTCAAGC,-0.107
6,GAAGCGGC,-0.089
7,ATATAAGG,0.015
8,TTAGCGAA,-0.0255
9,ACACCCCT,0.475
10,AGCGAGTA,-0.0533
11,CAGAGAGC,-0.237
12,AGCTCACC,-0.183
13,AAACTTCT,-0.188
14,AGGGAAGG,-0.0257
15,ACATATTC,-0.163
16,GAAGAGGA,-0.202
17,CTCTTGCA,0.0486
18,TCCTCTCA,-0.0506
19,AGTTGGCA,0.0485
20,ATTTTCTA,-0.214
21,AAGTCTCT,-0.402
22,GGTATAAA,0.114
23,AAGGTAAT,-0.0931
24,CAGCCGGG,-0.0638
25,AAGCTGGC,-0.213

row,Sequence,binding signal [E-score]
1,GTCGTCAA,-0.0525
2,AACATCTA,-0.0849
3,CCGGGTAA,0.177
4,AGAACAAT,-0.079
5,CAAGCTTG,-0.2
6,ATACTAAG,0.0604
7,ACCTTAAT,0.0183
8,CACGCTGA,0.223
9,AACGGATT,-0.185
10,ATGGTGCG,0.0606
11,ACGGAGTA,0.146
12,CTAATCTC,-0.176
13,TCGCCGAA,-0.148
14,AGGGATGC,-0.043
15,AGTCTGCG,-0.108
16,CCATTGCG,-0.229
17,AAAGAGAC,-0.00626
18,CCCTGGGC,-0.168
19,CCAATACA,0.096
20,AGGTATCG,0.33
21,CCAACATA,0.0711
22,AGGGAAGA,-0.128
23,GAGTAAGA,0.0475
24,GTTGCAGA,-0.118
25,CGTTGTGC,0.0178

row,Sequence,binding signal [E-score]
1,GTGGGCCA,-0.245
2,GAGCCACC,0.0254
3,CGGGGTAA,0.235
4,TAAGATAA,-0.0739
5,AGAGGAAT,-0.0415
6,CGCTAATA,-0.111
7,CTAAGCTC,-0.0473
8,GCGAACTA,-0.167
9,CTGCGCGA,0.0423
10,CTTCTCGC,-0.0209
11,GACTCGAA,-0.203
12,AAGTAACT,-0.239
13,ACTCGATA,0.0671
14,AATTGCTA,-0.025
15,GCCTCGGA,-0.211
16,CCTAATGC,-0.0597
17,GTCAACCA,-0.0523
18,AATGGCCT,-0.114
19,CGCACGCG,0.087
20,AGACTCTG,-0.198
21,AGAGACTA,-0.199
22,CACCACAA,0.214
23,AATAAGTG,0.0548
24,CCGCTCCC,-0.107
25,GCATTGAA,-0.253

row,Sequence,binding signal [E-score]
1,CGAGCGGC,-0.0884
2,CGGACGAA,-0.0497
3,CTCGCAAC,0.0238
4,CAATATGG,-0.0693
5,GACCAAGA,-0.0393
6,CATCTGGA,0.00653
7,ATTACTGA,-0.0971
8,GTTCCAAA,-0.164
9,CACCCCCA,0.368
10,CGTCCCGA,-0.137
11,GCTCCAAA,-0.205
12,GTTCCGAA,-0.0381
13,CGAAAGGA,0.0864
14,ATGGACGG,-0.089
15,AATGCTGT,-0.259
16,CAACCCAA,-0.0185
17,AAGAACGC,-0.162
18,CGTGGGAC,0.0256
19,AAAGGAGT,0.133
20,GCGAAAGA,-0.273
21,CTGGTATC,0.274
22,GTAAATCA,-0.144
